Results are given in words; binding and its absence hold for the method and conditions named. For part of these data: Binding seen in cells or lysates may run through a third protein. Some binding calls cover weakened binding; strength is not graded here. Tags and fused reporters may be left off the sequences shown.
B1: bZIP18, GAL4 activation domain fusion (prey) (protein, UniProt O22873 1-367)
chain: MEDPSNPQPNQSNLSQCPPLATAPTPAPVRGPYHRRAHSEVQFRLPEDLDLSEPFGGFDELGSEDDLFCSYMDIEKLGSGSGSASDSAGPSAPRSDNPFSAENGGAEAGNSRPRHRHSLSVDGSSTLESIEAKKAMAPDKLAELWVVDPKRAKRIIANRQSAARSKERKARYILELERKVQTLQTEATTLSAQLSLFQRDTTGLSSENTELKLRLQVMEQQAKLRDALNEQLKKEVERLKFATGEVSPADAYNLGMAHMQYQQQPQQSFFQHHHQQQTDAQNLQQMTHQFHLFQPNNNQNQSSRTNPPTAHQLMHHATSNAPAQSHSYSEAMHEDHLGRLQGLDISSCGRGSNFGRSDTVSESSSTM
B2: bZIP18-S120A, GAL4 activation domain fusion (prey) (protein, UniProt O22873 1-367)
chain: MEDPSNPQPNQSNLSQCPPLATAPTPAPVRGPYHRRAHSEVQFRLPEDLDLSEPFGGFDELGSEDDLFCSYMDIEKLGSGSGSASDSAGPSAPRSDNPFSAENGGAEAGNSRPRHRHSLAVDGSSTLESIEAKKAMAPDKLAELWVVDPKRAKRIIANRQSAARSKERKARYILELERKVQTLQTEATTLSAQLSLFQRDTTGLSSENTELKLRLQVMEQQAKLRDALNEQLKKEVERLKFATGEVSPADAYNLGMAHMQYQQQPQQSFFQHHHQQQTDAQNLQQMTHQFHLFQPNNNQNQSSRTNPPTAHQLMHHATSNAPAQSHSYSEAMHEDHLGRLQGLDISSCGRGSNFGRSDTVSESSSTM
B3: bZIP18-S39A/S120A, GAL4 activation domain fusion (prey) (protein, UniProt O22873 1-367)
chain: MEDPSNPQPNQSNLSQCPPLATAPTPAPVRGPYHRRAHAEVQFRLPEDLDLSEPFGGFDELGSEDDLFCSYMDIEKLGSGSGSASDSAGPSAPRSDNPFSAENGGAEAGNSRPRHRHSLAVDGSSTLESIEAKKAMAPDKLAELWVVDPKRAKRIIANRQSAARSKERKARYILELERKVQTLQTEATTLSAQLSLFQRDTTGLSSENTELKLRLQVMEQQAKLRDALNEQLKKEVERLKFATGEVSPADAYNLGMAHMQYQQQPQQSFFQHHHQQQTDAQNLQQMTHQFHLFQPNNNQNQSSRTNPPTAHQLMHHATSNAPAQSHSYSEAMHEDHLGRLQGLDISSCGRGSNFGRSDTVSESSSTM
B4: bZIP18-S120A-cYFP (protein, UniProt O22873 1-367)
chain: MEDPSNPQPNQSNLSQCPPLATAPTPAPVRGPYHRRAHSEVQFRLPEDLDLSEPFGGFDELGSEDDLFCSYMDIEKLGSGSGSASDSAGPSAPRSDNPFSAENGGAEAGNSRPRHRHSLAVDGSSTLESIEAKKAMAPDKLAELWVVDPKRAKRIIANRQSAARSKERKARYILELERKVQTLQTEATTLSAQLSLFQRDTTGLSSENTELKLRLQVMEQQAKLRDALNEQLKKEVERLKFATGEVSPADAYNLGMAHMQYQQQPQQSFFQHHHQQQTDAQNLQQMTHQFHLFQPNNNQNQSSRTNPPTAHQLMHHATSNAPAQSHSYSEAMHEDHLGRLQGLDISSCGRGSNFGRSDTVSESSSTM
B5: bZIP18-cYFP (protein, UniProt O22873 1-367)
chain: MEDPSNPQPNQSNLSQCPPLATAPTPAPVRGPYHRRAHSEVQFRLPEDLDLSEPFGGFDELGSEDDLFCSYMDIEKLGSGSGSASDSAGPSAPRSDNPFSAENGGAEAGNSRPRHRHSLSVDGSSTLESIEAKKAMAPDKLAELWVVDPKRAKRIIANRQSAARSKERKARYILELERKVQTLQTEATTLSAQLSLFQRDTTGLSSENTELKLRLQVMEQQAKLRDALNEQLKKEVERLKFATGEVSPADAYNLGMAHMQYQQQPQQSFFQHHHQQQTDAQNLQQMTHQFHLFQPNNNQNQSSRTNPPTAHQLMHHATSNAPAQSHSYSEAMHEDHLGRLQGLDISSCGRGSNFGRSDTVSESSSTM
B6: bZIP18-S39A/S120A-cYFP (protein, UniProt O22873 1-367)
chain: MEDPSNPQPNQSNLSQCPPLATAPTPAPVRGPYHRRAHAEVQFRLPEDLDLSEPFGGFDELGSEDDLFCSYMDIEKLGSGSGSASDSAGPSAPRSDNPFSAENGGAEAGNSRPRHRHSLAVDGSSTLESIEAKKAMAPDKLAELWVVDPKRAKRIIANRQSAARSKERKARYILELERKVQTLQTEATTLSAQLSLFQRDTTGLSSENTELKLRLQVMEQQAKLRDALNEQLKKEVERLKFATGEVSPADAYNLGMAHMQYQQQPQQSFFQHHHQQQTDAQNLQQMTHQFHLFQPNNNQNQSSRTNPPTAHQLMHHATSNAPAQSHSYSEAMHEDHLGRLQGLDISSCGRGSNFGRSDTVSESSSTM

biological target: T1, 14–3–3 ε, GAL4 DNA-binding domain fusion (bait) (Arabidopsis thaliana) (UniProt P48347); assay: two-hybrid; yeast MaV203; bait 14-3-3 ε as GAL4 BD fusion, preys bZIP as GAL4 AD fusions; growth on SC -L/-T/-H + 10 mM 3AT, 28 °C, 5 days
T1 sequence: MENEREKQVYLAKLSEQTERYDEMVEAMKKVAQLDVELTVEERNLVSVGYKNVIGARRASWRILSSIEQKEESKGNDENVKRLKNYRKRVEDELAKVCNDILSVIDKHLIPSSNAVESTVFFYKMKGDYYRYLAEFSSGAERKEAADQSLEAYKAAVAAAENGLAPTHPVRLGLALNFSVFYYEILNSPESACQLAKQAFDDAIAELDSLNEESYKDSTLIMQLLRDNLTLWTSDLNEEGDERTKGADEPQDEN

Question: Which binding does the source give for B1 here?
Answer: The binding was “binds”.

Question: How did the binding turn out when B2 was run?
Answer: Its binding is “binds”.

Question: Which binding does the source give for B3 here?
Answer: Its binding is “no binding”.

biological target: T2, 14–3–3 ε-nYFP (Arabidopsis thaliana) (UniProt P48347); assay: split reporter; BiFC (split YFP, pBiFCt-2in1-CC, RFP as transformation control) in N. benthamiana leaf epidermal cells, confocal microscopy
T2 sequence: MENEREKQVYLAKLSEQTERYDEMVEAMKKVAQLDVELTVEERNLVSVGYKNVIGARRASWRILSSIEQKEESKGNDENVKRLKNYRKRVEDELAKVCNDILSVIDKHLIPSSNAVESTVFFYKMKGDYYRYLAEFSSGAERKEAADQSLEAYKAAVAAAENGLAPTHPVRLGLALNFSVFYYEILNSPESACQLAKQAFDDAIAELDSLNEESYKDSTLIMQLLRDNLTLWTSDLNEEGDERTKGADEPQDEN

Question: For B4, which binding is on record?
Answer: The binding was “binds weakly”.

Question: For B5, which binding is on record?
Answer: Its binding is “binds”.

Question: B6 was tested. Which binding did it give?
Answer: Its binding is “no binding”.

From PMC7830406
